According to PubChem BioAssay AID1347430 (National Center for Advancing Translational Sciences (NCATS), 2020):
Screen size: about 91,000 compounds; about 130 (0.14%) were called active. The inconclusive results got no clear call from the source; some entries with a clear call stand among them for comparison. The call rests on the fitted dose curve; in most records, active means well fitted inhibition curve with a large enough effect; inconclusive means small, poorly fitted or top-dose-only effect; inactive means flat fitted curve, though single readings scatter. A potency beside an inconclusive call is a rough fit, not a confirmed value.

Each compound was assayed on Uracil-DNA glycosylase (assay: Primary qHTS assay for inhibitors of Activation Induced Cytidine Deaminase (AID): UDG Counterscreen signal). Details: FRET deamination/UDG coupled assay, UDG read, 4 h; activity change, negative = inhibition: at 115 µM (top of the series).
Further: nearly all actives have a fitted effect of over 65% in size.
On the % scale 0 is the no-effect control and ±100 the full control effect; potency means the concentration at half of the fitted maximal effect; tags describe the fitted curve by direction and shape.

SMILES | Potency | activity change, negative = inhibition
Cc1ccc(C)c(OCCn2c(-c3ccc(Cl)cc3)nc3ccccc3c2=O)c1C | inconclusive: 89.1 µM [inhibitor, single point] | 
Cc1ccc(NC(=O)CSC2CCCC2)c(Br)c1 |  | inactive: -3.29%
O=C(CCS(=O)(=O)c1cccs1)Nc1ccc(C(=O)Nc2ccccc2F)cc1 | inconclusive: 100 µM [inhibitor, partial curve, poor fit] | 
CCSc1ncc(Cl)c(C(=O)Nc2ccc(S(=O)(=O)N3CCCCC3)cc2)n1 | inconclusive: 100 µM [inhibitor, single point] | 
CCc1ccc(NC(=O)CSC2=Nc3ccccc3C3=NC(CCC(=O)NCc4ccco4)C(=O)N23)cc1 (stereo unspecified) | inconclusive: 89.1 µM [inhibitor, single point] | 
Cc1cc(I)ccc1NC(=O)C1CC2CCC1C2 (stereo unspecified) |  | inactive: -15%
COC(=O)c1ccc(C(=O)N2CCN(C(c3ccc(F)cc3)c3ccc(F)cc3)CC2)s1 |  | inactive: 2.06%
CC(C)c1ccc(S(=O)(=O)c2nnn3c2nc(N2CCCCC2)c2sccc23)cc1 | inconclusive: 89.1 µM [inhibitor, single point] | 
Cc1cccc(N2CCN(C(=O)c3cn(CC(C)C)c(=O)c4c3c3ccccc3n4C)CC2)c1C | inconclusive: 100 µM [inhibitor, single point] | 
O=C(O)CNS(=O)(=O)c1c(F)cccc1F |  | inactive: 5.83%
O=C(c1cccs1)N(Cc1cccnc1)c1nc2c(Cl)cccc2s1 | inconclusive: 89.1 µM [inhibitor, single point] | 
CC(=O)Nc1ccc2oc(-c3ccccc3)nc2c1 | inconclusive: 89.1 µM [inhibitor, single point] | 
CCOc1ccc(-n2c(SCC(=O)Nc3cccc(Cl)c3)nc3c(oc4ccccc43)c2=O)cc1 | inconclusive: 79.4 µM [inhibitor, single point] | 
Cc1ccc(NC(=O)c2cnn(-c3ccc(C)c(C)c3)c2C2CCN(C(=O)OC(C)(C)C)CC2)c(C)c1 | inconclusive: 89.1 µM [inhibitor, single point] | 
Cc1cccc(NC(=O)Cn2c(=O)n(CCC(C)C)c(=O)c3cccnc32)c1 | inconclusive: 89.1 µM [inhibitor, partial curve, poor fit] | 
Cc1nc2c(C(=O)NCc3ccccc3)cnn2c(C)c1Cc1ccc(F)cc1 |  | inactive: -22.3%
O=C(CC1N=C2c3ccccc3N=C(SCc3ccccc3F)N2C1=O)NCCc1ccccc1 (stereo unspecified) | inconclusive: 89.1 µM [inhibitor, single point] | 
COc1ccc(CCC(=O)NCc2ccc3c(c2)CCN3C(=O)c2ccc(F)cc2)cc1 | inconclusive: 79.4 µM [inhibitor, single point] | 
CC(C)(C)c1ccc(C(=O)NCC(c2ccco2)S(=O)(=O)c2ccc(F)cc2)cc1 (stereo unspecified) | inconclusive: 70.8 µM [inhibitor, partial curve, poor fit] | 
O=C(O)CC/C(=C/c1ccc2ccccc2c1)c1nc2ccccc2s1 |  | inactive: -1.26%
CCOc1ccccc1NC(=O)C1CCN(S(=O)(=O)c2cccs2)CC1 | inconclusive: 89.1 µM [inhibitor, single point] | 
CC(=O)c1ccc(N2CCN(C(=O)CCCCn3c(=O)[nH]c4ccsc4c3=O)CC2)cc1 |  | inactive: -6.05%

SMILES | Potency | activity change, negative = inhibition
COc1cc(OC)c(OC)cc1CN1CCCC(C(=O)N2CCCCCC2)C1 (stereo unspecified) | inconclusive: 89.1 µM [inhibitor, single point] | 
Cc1ccc2[nH]c(C)c(CCNC(=S)NC(C)(C)C)c2c1 |  | inactive: -2.52%
O=C(COc1ccc(Cl)cc1Cl)NCCc1csc(-c2ccncc2)n1 | inconclusive: 89.1 µM [inhibitor, single point] | 
COc1ccc2c(C)c(CCC(=O)NCCc3ccccc3)c(=O)oc2c1 | inconclusive: 100 µM [inhibitor, partial curve, poor fit] | 
Cc1cc2c(cc1S(=O)(=O)N(CCN(C)C)Cc1ccccc1)OCC(=O)N2 | inconclusive: 89.1 µM [inhibitor, single point] | 
CCOc1ccccc1NC(=O)c1nc(S(=O)(=O)Cc2cccc(C)c2)ncc1Cl | inconclusive: 100 µM [inhibitor, single point] | 
Cc1cccc2c(=O)cc(CSc3ccccc3NC(=O)C(C)C)[nH]c12 | inconclusive: 39.8 µM [inhibitor, single point] | 
COc1cccc(NC(=O)CSc2nc(=O)n(Cc3cccnc3)c3c2CCC3)c1 | inconclusive: 100 µM [inhibitor, single point] | 
O=C(CSc1nnnn1-c1cccc(F)c1)NCC1(N2CCOCC2)CCCCC1 |  | inactive: -5.19%
COc1cccc(CNC(=O)N2CCc3c(sc4c3CCCC4)C2c2ccc(F)cc2)c1 (stereo unspecified) | inconclusive: 11.2 µM [inhibitor, partial curve, poor fit] | 
Cc1cc(=O)n(Cc2cccc(Cl)c2)c2c1c(C)nn2C | inconclusive: 89.1 µM [inhibitor, single point] | 
Cc1ccc(-n2ncc3c(Nc4ccc(Oc5ccccc5)cc4)ncnc32)c(C)c1 | inconclusive: 79.4 µM [inhibitor, partial curve] | 
Cc1ccc2nc(NCc3ccccc3)c3nncn3c2c1 | inconclusive: 89.1 µM [inhibitor, partial curve, poor fit] | 
Cc1cccc(N(CC(=O)NCCc2ccccc2)S(=O)(=O)c2ccccc2)c1C |  | inactive: 2.97% [at 57.5 µM]
Cc1ccc(-c2csc(-c3c(N)c(C(=O)c4ccc5c(c4)OCO5)n4ccccc34)n2)cc1C | inconclusive: 89.1 µM [inhibitor, partial curve, poor fit] | 
O=C(O)c1ccc(CSc2cccc(Cl)c2)cc1 |  | inactive: -2.1%
CCOC(=O)c1scc(-c2ccccc2)c1S(=O)(=O)N1CCN(c2ccc(Cl)cc2)CC1 | inconclusive: 89.1 µM [inhibitor, single point] | 
COc1cccc(N2CCN(C(=O)c3cnc4c(-c5ccccc5)c(C)nn4c3C)CC2)c1 | inconclusive: 70.8 µM [inhibitor, single point] | 
O=C(NCCc1ccc(F)cc1)C(=O)NCC(c1ccco1)S(=O)(=O)c1ccccc1 (stereo unspecified) | inconclusive: 89.1 µM [inhibitor, single point] | 
CC(C)C(=O)N/N=C/c1ccco1 |  | inactive: -10.1%
O=C(CCC1CCCC1)NCCc1cccnc1 |  | inactive: -8.17%
CCOc1ccccc1NC(=O)CSc1nc2ccccc2nc1N1CCOCC1 | inconclusive: 89.1 µM [inhibitor, partial curve, poor fit] | 

SMILES | Potency | activity change, negative = inhibition
CCOc1ccc(NC(=O)CC2C(=O)N(c3cccc(OC)c3)C(=O)N2C2CCCCC2)cc1 (stereo unspecified) | inconclusive: 100 µM [inhibitor, single point] | 
CC(NC(=O)c1ccc(NC(=O)C2CC2)s1)c1ccc(Cl)cc1 (stereo unspecified) |  | inactive: -4.38%
COc1ccccc1C(=O)Nc1cc(-c2cccc(Br)c2)nn1-c1ccccc1 | inconclusive: 100 µM [inhibitor, single point] | 
COc1ccc(Cn2c(SCC(=O)NCc3ccccc3)nc3ccccc32)cc1 | inconclusive: 89.1 µM [inhibitor, partial curve, poor fit] | 
NC(=O)CN1CCCC(C(=O)O)C1 (stereo unspecified) |  | inactive: 3.68%
O=Cc1cc(O)c(Br)cc1Br |  | inactive: 0.812%
Cc1cc(C)c2oc(C(=O)Nc3c(C(=O)c4ccc(F)cc4)oc4ccccc34)cc(=O)c2c1 | inconclusive: 39.8 µM [inhibitor, single point] | 
Cc1ccc(CNC(=O)C(CC(C)C)N2Cc3ccccc3C2=O)cc1 (stereo unspecified) | inconclusive: 89.1 µM [inhibitor, single point] | 
Cc1cccc(-c2cc(NC(=O)COc3ccccc3F)n(-c3ccccc3)n2)c1 | inconclusive: 89.1 µM [inhibitor, partial curve, poor fit] | 
CCOC(=O)C1=C(CN2CCN(Cc3ccccc3)CC2)NC(=O)NC1c1ccccc1 (stereo unspecified) | inconclusive: 89.1 µM [inhibitor, single point] | 
CCCc1nnc2sc(COc3ccc(Br)cc3)nn12 | inconclusive: 89.1 µM [inhibitor, partial curve, poor fit] | 
CCOC(=O)c1cccc(NC(=O)C2CCN(c3nnc(C)c4c(C)n(-c5ccccc5)nc34)CC2)c1 | inconclusive: 89.1 µM [inhibitor, single point] | 
COc1ccc(Cl)cc1NC(=O)C(C)N1Cc2ccccc2C1=O (stereo unspecified) | inconclusive: 89.1 µM [inhibitor, single point] | 
O=C(NNc1ncnc2c1cnn2-c1ccccc1)c1ccccc1 | inconclusive: 89.1 µM [inhibitor, single point] | 
CN1C(=O)Cc2cc(-c3csc(-c4ccccc4)n3)ccc21 | inconclusive: 20 µM [inhibitor, full curve] | 
Cc1oc2c(cc(NS(=O)(=O)c3ccc(Cl)cc3)c3ccccc32)c1C(=O)OCc1ccccc1 | inconclusive: 100 µM [inhibitor, single point] | 
COc1ccc(N(Cc2cccs2)C(=O)Nc2cccc(Cl)c2)cc1 | inconclusive: 89.1 µM [inhibitor, partial curve, poor fit] | 
COC(=O)NCC(=O)NC(c1ccccc1)C(C)C (stereo unspecified) |  | inactive: -4.89%
CCOc1ccc(-n2c(=O)c3c(C)c(C)sc3n(Cc3ccccc3C)c2=O)cc1 | inconclusive: 89.1 µM [inhibitor, single point] | 
CCOc1ccc(-n2c(SCc3nc(-c4ccc(OC)cc4)no3)nnc2-c2ccncc2)cc1 | active: 79.4 µM | 
CC(C)Cn1c(SCC(=O)c2ccc(C#N)cc2)nnc1-c1ccccc1 |  | inactive: -3.49%
CCOc1ccccc1NC(=O)Cn1c(=O)n(CCC(C)C)c(=O)c2cccnc21 | inconclusive: 100 µM [inhibitor, single point] | 
